Laboratory results published in the supplement of paper PMC10126150.
Values marked as one replicate rest on one cluster of the flow cell; about a third of the high ones do not repeat.

Test system: ATP
Test: switch fluorescence ratio, 500 uM ATP over buffer (Cy3 cluster intensity, sum of 5 cycles each) (fold (ratio)); higher = stronger signal-on switching upon ATP binding; sequences stand for … in TCGTCGGCAGCGTCAGATGTGTATAAGAGACAGTTTTTTTTTTTTTTTTTTTTTTTTT…TC
Settings: aptamer strand: ATP DNA aptamer (quencher-CACCTGGGGGAGTATTGCGGAGGAAGG + anchor), 100 nM annealed; ATP concentration: 500 uM; one replicate
Method in brief: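 Exposure to 500 uM ATP lasted 15 min at 22 °C before imaging, and a selection-buffer image was taken beforehand, for Cy3-labelled switching-strand clusters on a modified Illumina MiSeq flow-cell annealed to 100 nM quencher-labelled ATP aptamer. Five buffer/ATP cycles were run with NaOH stripping and re-annealing between them. The fluorescence ratio per cluster is summed target-cycle over summed buffer-cycle Cy3 intensity, averaged per switch-domain sequence. Clusters outside 100-1000 RFU were excluded.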

| Sequence | switch fluorescence ratio |
| --- | --- |
| GAAGAGGTGG | 0.977 |
| GAACGTCTGG | 1.06 |
| AATGGTAAGA | 0.969 |
| GAAGGCTAGT | 1.02 |
| TTTAGTTCGA | 0.989 |
| CGCATGCGTA | 0.957 |
| TAGTGAAGAC | 0.936 |
| CGAGAAGGGC | 1.05 |
| GCTCTACAGT | 0.975 |
| TTAAATCTTC | 1.06 |
| GCTATCGGGG | 0.978 |
| GGCCGGGCTT | 1.01 |
| TCATAAAATT | 0.979 |
| TATGAACCTA | 1.08 |
| AATGTGTAGA | 1.07 |
| CTGTATCTCG | 1 |
| TTTGTCAATA | 1.01 |
| GCCGCGCTGG | 1.03 |
| TCCCGTGTTG | 1 |
| ACCGTTTGTC | 1.03 |
| GGATAGTCGC | 0.958 |
| TCTTCGTGGC | 1.17 |
| CTAAGAGT | 1.02 |
| GCCCAGTGAG | 1.86 |
| GCTGTAACAG | 0.994 |

| Sequence | switch fluorescence ratio |
| --- | --- |
| ACAAAAACGC | 1.03 |
| ATCCCGTTTA | 0.941 |
| CGAGGGCTTC | 0.999 |
| GTAGTTAGCT | 0.993 |
| CTGGTGGGGA | 0.994 |
| CTCGTTGGAC | 1.12 |
| ATACAATTTT | 1.02 |
| CACGGTGGCC | 0.982 |
| TGCGTTCGAT | 1.02 |
| AATTCGGAGT | 1 |
| CGCTTTTTCA | 1.01 |
| GGAGAACAGG | 1.05 |
| GTATGTTGTG | 0.981 |
| AATAGGCTTT | 1.02 |
| ACGACAGAGT | 1.05 |
| TATAAGACCT | 1.38 |
| GCGTTACGCA | 0.987 |
| CCGAGCCGG | 1.07 |
| AGTGCACATT | 0.997 |
| ACAGGTATTG | 1 |
| TGCTCGGATT | 0.972 |
| TCGGCGGAGT | 1 |
| ATTATCTATA | 1.01 |
| ACTTCCCGAA | 1.22 |
| CTTATAAGTT | 0.978 |

| Sequence | switch fluorescence ratio |
| --- | --- |
| GGCATGGGGA | 0.988 |
| GAAATTACAT | 1.03 |
| TCTGAATGCC | 1.04 |
| GAAGGCAATA | 1.06 |
| GGAAAATGCC | 1.08 |
| ATGCCAGC | 0.988 |
| TAGGAGTGAT | 0.99 |
| CGTCAAACTA | 1.02 |
| ACTACAAGTG | 1.05 |
| GACTTGATGG | 1 |
| CACCTTCTC | 2.15 |
| GTGCAGCCGT | 1.03 |
| CGGAGGCTCT | 1.07 |
| AGAAAGGA | 0.97 |
| CCGCCCACTT | 1.74 |
| CGCATTAGGT | 1.2 |
| TTTTAAACA | 1.03 |
| GGCACAATTT | 0.958 |
| CGTGGTTCGG | 1 |
| AAAAGCACCG | 1.2 |
| CAGGACCGTT | 1 |
| GTTAACCACA | 1.03 |
| TCCCTTCATT | 1.08 |
| AGGGACATA | 1.03 |
| GGGCCGGCGC | 0.975 |

| Sequence | switch fluorescence ratio |
| --- | --- |
| TATCGTACTG | 1.02 |
| AATAGGAGAT | 0.966 |
| GTTCCTATTA | 0.997 |
| CTGTATGGTT | 0.987 |
| TCGATCATT | 0.941 |
| TCTTTATTGG | 1 |
| TCTAATGGCA | 1.01 |
| CTCAGAGATC | 1.01 |
| TGTTAACTAC | 1.1 |
| TGGGGAGAG | 0.99 |
| AGGACTGAGC | 1.03 |
| TATGCGATTT | 0.922 |
| GCGTAGACGG | 0.945 |
| GTCGCTTAAA | 0.995 |
| GTTTGATGGT | 0.999 |
| TTATACTAAT | 0.966 |
| AAGCGCGAAG | 1.11 |
| TAGTACCGTG | 1.02 |
| GGCACAAGC | 1.04 |
| TACATTTAGC | 1.02 |
| GGTCGCGATC | 1.03 |
| ACACTTTAAA | 1.02 |
| AGCGAAGAGA | 1.02 |
| TCGTCGCTTG | 0.992 |
| ACTAAAATTG | 0.962 |

| Sequence | switch fluorescence ratio |
| --- | --- |
| GTTGGCGAGC | 1 |
| GAACGCAAAA | 2.72 |
| CATATTGAAA | 1.01 |
| ACCTATAGCC | 1.04 |
| GAGGCATGAG | 1.1 |
| CGCTGATCTG | 1.03 |
| TCTGGGCGGA | 0.965 |
| TTTCCAAAG | 1.06 |
| AACAAAGTAT | 1.03 |
| CTGGTGAGAA | 1.02 |
| TCGTCTATGG | 1.05 |
| GAATTTATTG | 1 |
| GGTTGTCCCG | 0.98 |
| AGAAATGTAG | 1.02 |
| GGGTTCCTTT | 1.01 |
| TCAGCGGAGT | 1.01 |
| CATACCATCC | 1.65 |
| GGATTCGGGC | 1.01 |
| AGCAAGCCCC | 2.39 |
| TAGCAGATGT | 1.01 |
| CGAGTTACAT | 1.06 |
| TTTGTATCGG | 1.04 |
| AATATAAGTA | 0.997 |
| TCGGCACCCT | 1.06 |
| CGTTTCGACA | 1.01 |

| Sequence | switch fluorescence ratio |
| --- | --- |
| CGACTTGTGC | 0.984 |
| CCAAAGTACA | 1.22 |
| AGTCATGTAC | 1.12 |
| CTGAGATGCC | 0.973 |
| TATCAGGTGG | 1.06 |
| CAATCCTTCC | 2.31 |
| TCGTACTTTG | 0.981 |
| TAGGTTAGTA | 0.996 |
| AACGTCTATG | 0.946 |
| ACACCGCGAT | 3.81 |
| CTTAAGAAGC | 1.02 |
| CTTGTTTTCG | 0.963 |
| CCAAGTGTT | 0.977 |
| TTGAAATGAA | 0.999 |
| TGCTCCAAGA | 3 |
| CAGTTGATAC | 1.48 |
| CTTTGCATGC | 2.28 |
| CTTGACAGTT | 0.969 |
| TAGTTGTTC | 0.959 |
| CGGGGTATGA | 0.969 |
| GCATTACTGT | 1.27 |
| ATTGTGATAC | 1.32 |
| TATAAAATAC | 1.38 |
| ACAATACTTG | 1.09 |
| CCAGAAGTGT | 1.05 |

| Sequence | switch fluorescence ratio |
| --- | --- |
| TTTTGGGCGC | 0.938 |
| TTTTGCTGGC | 1.18 |
| CGTAGTGGCA | 0.943 |
| TCATTGGGCG | 1.03 |
| ACCTCCTGGT | 0.993 |
| TCGTTGCACG | 1.01 |
| ATTTTATTGC | 0.922 |
| GGGTTACGGC | 1.08 |
| CCATTTCTTA | 0.999 |
| GGCCTTGGCT | 1.03 |
| CGCGGGTTGT | 0.993 |
| GCCGTACCCA | 0.996 |
| AAAAAGGGAT | 1 |
| CTGGTTGCGC | 1.05 |
| AGGTCATCTT | 0.991 |
| GTATCAGGGT | 0.999 |
| GTGTTCCTAT | 1.02 |
| CTCTGTGCCT | 1.04 |
| TCCAGATTAT | 0.995 |
| GTCGACTTTT | 0.974 |
| GGCCCTTATG | 0.992 |
| GTGGCGCATC | 1.04 |
| CATAACCGTC | 1.21 |
| TCGGGAGTAG | 1.01 |
| GTTGGATGTG | 1.04 |

| Sequence | switch fluorescence ratio |
| --- | --- |
| ACTATCTGCT | 0.986 |
| ACATTTGCCT | 1.03 |
| ACTCGAGTCG | 0.947 |
| TATACATCTA | 1.02 |
| TTCGGACAGG | 0.985 |
| AGGCGAGGAC | 1.03 |
| TTTTCGTCAG | 1 |
| ATCGGGTATT | 1.02 |
| GGATGCTAGC | 1.04 |
| TAGTTCTATC | 0.987 |
| CCAATCCACT | 1.04 |
| GGGATTCAAG | 1.01 |
| GAGGCGAGTA | 0.916 |
| CTGTGGCGGT | 1 |
| ACGCGGATGT | 1.06 |
| GATTGGAGTG | 1 |
| CGCGCCTTAG | 1.02 |
| TTCCCCGGCG | 1.33 |
| CATCGATCAC | 1.01 |
| CGACCCTATT | 1.07 |
| CGGTTGCTGC | 1.01 |
| CAGGAGGTAC | 1.11 |
| TGGAAGATTC | 1.05 |
| GAGAAGAGAG | 0.959 |
| GACTTATTGT | 0.988 |
